This passage reports binding signal results from publication PMC12136788.

T1: UNK ZnF1-6 (called full-length) (human, UniProt Q9C0B0 30-357)
T1 sequence: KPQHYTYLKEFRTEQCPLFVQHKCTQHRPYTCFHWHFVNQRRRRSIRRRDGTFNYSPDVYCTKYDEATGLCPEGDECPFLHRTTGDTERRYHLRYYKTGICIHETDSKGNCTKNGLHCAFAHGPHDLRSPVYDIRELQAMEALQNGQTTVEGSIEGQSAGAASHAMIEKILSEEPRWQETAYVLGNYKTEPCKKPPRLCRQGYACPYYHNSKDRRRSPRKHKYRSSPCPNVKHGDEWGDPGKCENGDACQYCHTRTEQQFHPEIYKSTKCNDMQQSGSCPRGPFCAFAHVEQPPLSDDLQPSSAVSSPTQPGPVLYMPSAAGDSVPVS

B1: chr10:104129887:104130138:-|three_prime_utr|ENSG00000197748|control|control|control (ssRNA)
RNA: GGGAGUUCUACAGUCCGACGAUCAAAAAAUCAUUUCAUUUGGGUAAAAUGAUUUCCUUUUCUUUCUUACUGGGAAAUUGAAGUAGCAUGUCCUCUGAGUUGCAUGUUUUAGAUAAAAAAUUGUUUAAUUUUAGCCUUAAUUGUCAACAGAGGAUUGAGCAUCA
B2: chr10:94132299:94132400:+|CDS|ENSG00000138193|unk|FALSE|unique (ssRNA)
RNA: GGGAGUUCUACAGUCCGACGAUCUGAGUAUCGCGCCACCCUCCAAAGGACUUCAAUAUCGCAGUACAUCACCGGUUCUCUCCUAGAAGCAACCACGUCUUUGGGAGCAAGAAGUGGCCUUCUCAGUACUUUUGGAGGAUCCACCAACAGAGGAUUGAGCAUCA
B3: chr15:32738025:32738127:+|3pUTR|ENSG00000166923|unk|total|mutant (ssRNA)
RNA: GGGAGUUCUACAGUCCGACGAUCGGAUAUCUGCUGUCACUAUUUUUAUUCAAUAUUAUACUGGAGGUUCUACCCCGGGUAAUCCGGCAAAAAAAAAAAAAAAAAAAAAAAAAAAAAAAAAAAAAAAAAAAAAAAAAAGAAAAGCAACAGAGGAUUGAGCAUCA
B4: chr16:23064695:23064796:-|3pUTR|ENSG00000103404|msi1|FALSE|unique (ssRNA)
RNA: GGGAGUUCUACAGUCCGACGAUCGUUUAUGGAGGGCCUUCUUUGAGCACAGAGGCAAAACUGAAAGCUUCAGGGAUUUGCUGUAGCUGAGGAGCCCUGGGAGCACAGCCCAUCAAGCAAGGGAUGUGAUGGUGUCCUAAAUGGCAACAGAGGAUUGAGCAUCA
B5: chr6:105096826:105097152:-|3pUTR|ENSG00000112276|msi1|FALSE|unique (ssRNA)
RNA: GGGAGUUCUACAGUCCGACGAUCACUUGCAACCUAGUUUUAAAAUACAUGAGGAUUUUAUGAAAGCUUUAUACAGACAUUUAUAGGAAACUCAUUCUUUGAUUUUAGGUGCCAUUUAAAUUGAUAACACUUACUUUAUAAAAACAACAGAGGAUUGAGCAUCA
B6: chr4:109463114:109463221:+|CDS|ENSG00000138802|unk|FALSE|unique (ssRNA)
RNA: GGGAGUUCUACAGUCCGACGAUCAGGAGCACAGCAGUUGUACAGCAGGGGUCCUCCUGCCCCUCAUAUUGUGGGAUCCACUCUAGGAUCUUUCCAAGGUGCUGCAUCGUCAGCAUCCCAUUUGCAUACGAGUGCCUCCCAACCCAACAGAGGAUUGAGCAUCA
B7: chr3:62294290:62294391:+|3pUTR|ENSG00000144724|msi1|total|mutant (ssRNA)
RNA: GGGAGUUCUACAGUCCGACGAUCAACCCGUCCUCUAAAAAUUCCCUAUUACUCCUACCGCAAUCUAAUAAAAACUACCUACACCGUUACUGUUUUCUUUCCUUCUUUGCCAAAUGUUUUAUAAUAAAUCUCUUAAUUACAUACCAACAGAGGAUUGAGCAUCA
B8: chr17:5384886:5384987:+|3pUTR|ENSG00000029725|unk|total|mutant (ssRNA)
RNA: GGGAGUUCUACAGUCCGACGAUCGGUUUAAGACCCGUCCCUUGGAUAAGCCCCAAGCGAAUUUGUCUUCAGAUUAUUAAAAUCCGUGCUGUAAAUCAGGGUGGGCAAUUCACAGCCUUUCUGAACUGACUGAACCCGAGCUUGCAACAGAGGAUUGAGCAUCA
B9: chr2:216674221:216674322:-|3pUTR|ENSG00000115461|msi1|total|mutant (ssRNA)
RNA: GGGAGUUCUACAGUCCGACGAUCGCAUGCCCCAUCUCUCUGCACAGCUGUCCCCUAAACCCAACUCACGUUUCUGUAUGUCUCCGGCCAGUAUCCCAAACCUCUUCCACGUCACUGUUCUUUCCACCCAUUCUCCCUUUGCAUCAACAGAGGAUUGAGCAUCA
B10: chr1:201892154:201892255:+|3pUTR|ENSG00000198892|msi1|total|mutant (ssRNA)
RNA: GGGAGUUCUACAGUCCGACGAUCUGUUUGUCCCCUCUGGGCUGGGGUGGGGGGAGGGAGGAGGUUCCGUCAGCAGCUGGCAGCCGCCCUCCUCUCUGGCUGCCCCACUGGCCACAUCUCUGGCCUGCCCGAUUAAAGCUGUAACAACAGAGGAUUGAGCAUCA
B11: chr6:36925443:36925544:+|3pUTR|ENSG00000198663|msi1|total|mutant (ssRNA)
RNA: GGGAGUUCUACAGUCCGACGAUCGAGGCAUCCCGUGGGAAAGUCCCCUAAGUCCCAUUUUGUACUUCAACAAAAAAUGACUGCCGCAGAAGAUAAGUGGAGACUUUUAUGGAUAUACUACUCAUUUUACUUAAAAUCUACCCACAACAGAGGAUUGAGCAUCA
B12: chr7:7234405:7234460:+|CDS|ENSG00000106392|msi1_unk|FALSE|overlapping (ssRNA)
RNA: GGGAGUUCUACAGUCCGACGAUCAAUUUUUUAACCUUCCUCUGUGGAUCAGCAAUAGGAUUUCUUUUAUGUUCUCAGCUAUUUAGUAUUUUGUUGGGAGAAAAGGUUGACACCCAGCCUAAUGUUCUUCAUAAUGAUCCUCAUCAACAGAGGAUUGAGCAUCA
B13: chr2:212999690:213008084:-|three_prime_utr|ENSG00000030419|control|control|control (ssRNA)
RNA: GGGAGUUCUACAGUCCGACGAUCACAAUCGCUGAAGUGGCCCCAGUUAUAAGCUCAGCUUAUUCUCAGGUCUAUCAUCCAAAUAGGAUAGAAAGACCCAUUAGCAGGGAAACUGCUGAUAGUCAUGAAAACAACAUGGAUGGCCAACAGAGGAUUGAGCAUCA
B14: chr1:160214333:160214525:+|3pUTR|ENSG00000162734|msi1|total|mutant (ssRNA)
RNA: GGGAGUUCUACAGUCCGACGAUCCUACAGUGUUUUCCUUUGCACCGAUCCCCACCCCAAUUCAAUCCCGGAAGGGACUUACUCCGGAAACCCUUCUUUACCCGAUAUCCUGGCCCCCUGGGCUUGUGAACACCUCCCCGCCACCAACAGAGGAUUGAGCAUCA
B15: chr20:18487131:18487232:-|3pUTR|ENSG00000089050|msi1|total|mutant (ssRNA)
RNA: GGGAGUUCUACAGUCCGACGAUCAAAUACCGUAACCAGUAACCACAGCCCGCUGUAAAAUUGAAAAUUCAGUUCAGUCAAACCCGCCAUAUUUCAAGUGCUCAACAGCCACUGGUGGCUAUUGGUUACCUUACUGACCAGCCACAACAGAGGAUUGAGCAUCA
B16: chr15:67202635:67202736:-|3pUTR|ENSG00000103591|msi1|FALSE|unique (ssRNA)
RNA: GGGAGUUCUACAGUCCGACGAUCUGCCAAAAUUGCCCUUAUCAUGUUGGCUGCCUGACUUGUUUAUAGGGUCCCCUUAAUUUUAGUUUUUAGUAGGAGGUUAAGGAGAAAUCUUUUUUUUCCUCAGUAUAUUGUAAGAGAGUGCAACAGAGGAUUGAGCAUCA
B17: chr6:119178661:119178762:-|3pUTR|ENSG00000111885|msi1|total|mutant (ssRNA)
RNA: GGGAGUUCUACAGUCCGACGAUCGAAAGAAGCUUUGCCAAUUUUACUUAUUCGUGAUCAAUCAAGGAAAAUCUAAUAAAUUUCCGGCCAAAUAAGAAUACCGCAUAUUCCGUAUGGUUACCGUCAACACAGAGAUCACAACUUCAACAGAGGAUUGAGCAUCA
B18: ENSG00000107863:be:win_5801|CDS_3pUTR|ENSG00000107863|bound_else_gene|NA|bound_elsewhere_windowed (ssRNA)
RNA: GGGAGUUCUACAGUCCGACGAUCGUUCUGCAGCGAAUGCCCAACCUCAUAAACUGUCUGAAACCCCAGGCAGUAAAGCAGAGUUUCAUCCCUGUCUUUAAACUGGGGGUAUGUCCACUCUAGCAAGUAAAAAAACUACUGUUACAACAGAGGAUUGAGCAUCA
B19: chr1:17283265:17283432:+|3pUTR|ENSG00000142619|msi1|total|mutant (ssRNA)
RNA: GGGAGUUCUACAGUCCGACGAUCCAUGUGGUUCUCAGACUUGAAUCUUCUCGGCCCCCCAAAAAGAAGGACCUCAUUUCUUACCGCCUCUCCUGUGAUUCAACACAACCCAUGGAGAUGUCCCCUUCUCACUCUGAAAUCAUCCAACAGAGGAUUGAGCAUCA
B20: ENSG00000175216:stop:overlap|stop_codon|ENSG00000175216|stop_codon|NA|stop_codon (ssRNA)
RNA: GGGAGUUCUACAGUCCGACGAUCGAUGUGGUCUGGACAACACAAAGGUACUGCUCCUUUUCUUCUGUGCAGUUCAGGGAGGGUAGUCACAAGCAGGUCCGAGGCAGGCUGGCCCACAGAGAAGUGGCUUAGUCUUGCUGUAGUCAACAGAGGAUUGAGCAUCA
B21: ENSG00000124766:be:win_3001|3pUTR|ENSG00000124766|bound_else_gene|NA|bound_elsewhere_windowed (ssRNA)
RNA: GGGAGUUCUACAGUCCGACGAUCUUUUUUUGGUAGUUGUUGUUACCCACGCCAUUUUACGUCUCCUUCACUGAAGGGCUAGAGUUUUAACUUUUAAUUUUUUAUAUUUAAAUGUAGACUUUUGACACUUUUAAAAAACAAAAACAACAGAGGAUUGAGCAUCA
B22: chr5:138873012:138874556:-|CDS|ENSG00000146006|control|control|control (ssRNA)
RNA: GGGAGUUCUACAGUCCGACGAUCUUUAUUAUUUUUAUAGUGUUCAUCUCCAGGAAGUGCUGCCCUCCCACUUUAAGAAGAAUUAGGCAGUGCUCAAUGGUUCAGAACCACAGGCAGCUCCGAUCCCAAACACGACUCCAUAUGCAACAGAGGAUUGAGCAUCA

The list shows a part of the results.

In the assay the target is T1, UNK ZnF1-6 (called full-length). Put plainly: nsRBNS (natural sequence RNA bind-n-seq); RBNS binding buffer (assumed for nsRBNS): 25 mM Tris pH 7.5, 150 mM KCl, 3 mM MgCl2, 0.01% Triton X-100, 500 ug/ml BSA, 20 U/ml SUPERase-In, 4 C; UNK is unkempt and MSI1 is Musashi-1; names of the RNAs are library labels; protein concentration not given here; high values mean tight binding.
Regarding B1, the binding signal turned out to be 13.5 enrichment R.

The molecule B2 displayed a binding signal of 0.599 enrichment R.

For B3, the binding signal stood at 3.68 enrichment R.

In turn, B4 yielded a binding signal of 0.81 enrichment R.

Take B5: the binding signal came out at 1.57 enrichment R.

B6: the binding signal turned out to be 0.73 enrichment R.

For B7, the binding signal amounted to 3.11 enrichment R.

B8 showed a binding signal of 0.457 enrichment R.

For the molecule B9, the binding signal is 1.02 enrichment R.

Regarding B10, the binding signal stood at 0.547 enrichment R.

For the molecule B11, the binding signal worked out at 0.615 enrichment R.

On to B12, for which the binding signal is 2.12 enrichment R.

For B13, the binding signal came out at 0.447 enrichment R.

B14 showed a binding signal of 1.14 enrichment R.

Molecule B15 displayed a binding signal of 0.473 enrichment R.

Take B16: the binding signal was found to be 15.9 enrichment R.

As for B17, the binding signal was found to be 0.406 enrichment R.

Regarding B18, the binding signal came to 0.526 enrichment R.

B19 yielded a binding signal of 0.501 enrichment R.

The molecule B20 showed a binding signal of 0.392 enrichment R.

Molecule B21 registered a binding signal of 4.11 enrichment R.

With B22, the binding signal was 1.45 enrichment R.
